Some of the results follow.

Eleven compounds from the antibiotic and cytotoxicity screens of Wong et al. (2023) can be followed below.

This test concerns S. aureus RN4220. In words: growth inhibition call (relative growth <= 0.2). Conditions: 50 µM.
With `CO[C@@H]1CN(C)C(=O)c2ccc(NS(=O)(=O)c3ccccc3C)cc2OC[C@@H](C)N(S(C)(=O)=O)C[C@H]1C`, the growth inhibition call is “inactive”.
Next, `O=C(O)c1cc(-c2ccccc2)nc2ccccc12`: “inactive”; `CO[C@@H]1CN(C)C(=O)c2cc(NC(=O)c3cc(C)on3)ccc2OC[C@@H](C)N(C(=O)C2CCC2)C[C@H]1C`: “inactive”.
As for `C[C@H]1Cc2c(N)nn(C)c2NC1=O`, the entry is “inactive”; as for `C[C@@H]1CN([C@@H](C)CO)C(=O)Cc2cc(N(C)C)ccc2O[C@H]1CN(C)S(=O)(=O)c1cn(C)cn1`, “inactive”.
Next, `Cc1nn(C)c(C)c1CN`: “inactive”.
Regarding `C[C@H]1CN([C@@H](C)CO)C(=O)c2cc(NS(=O)(=O)c3ccc(F)cc3)ccc2O[C@H]1CN(C)C(=O)Nc1cccc2ccccc12`, the growth inhibition call was “inactive”.
As for `CCO[C@@H]1OC(C(=O)N2CCN(Cc3ccc4c(c3)OCO4)CC2)=C[C@H](C)[C@H]1CCCOC(=O)NCCCCCC(=O)NO`, the entry is “inactive”; as for `C[C@H]1CCCCO[C@@H](CN(C)Cc2ccc(C(=O)O)cc2)[C@@H](C)CN([C@@H](C)CO)C(=O)c2cc(NC(=O)C3CCCCC3)ccc2O1`, “inactive”.
As for `Cc1cc(C(=O)Nc2cccc3c2O[C@@H](CN(C)Cc2ccncc2)[C@@H](C)CN([C@@H](C)CO)C3=O)n(C)n1`, the entry is “inactive”; as for `C[C@H]1CN([C@@H](C)CO)C(=O)c2cc(NC(=O)Cc3ccccc3)ccc2O[C@H]1CN(C)Cc1ccc(C(F)(F)F)cc1`, “inactive”.
